In PubChem BioAssay AID493208 (National Center for Advancing Translational Sciences (NCATS), 2011):
In all, about 44,000 compounds went through this assay and about 340 (0.77%) were called active. Roughly 5% stayed inconclusive and do not appear here. Calls come from the whole dose curve; as a rule, active = well fitted inhibition curve with a large enough effect; inconclusive = small, poorly fitted or top-dose-only effect; inactive = flat fitted curve, though single readings scatter. Some of the results follow.

Assay: Acumen qHTS Assay for Inhibitors of the mTORC1 Signaling Pathway in MEF (Tsc2-/-, p53-/-) Cells: Sytravon;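 note: plate controls were DMSO for no effect and rapamycin for full effect; nearly all actives have a fitted effect of over 50% in size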
Conditions: phospho-rpS6 immunofluorescence/PI, 24 h; series mostly up to 38.3 µM; activity change, negative = inhibition: at the top concentration
Method in brief: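 Read-out: phospho-S6 Alexa-488 intensity over PI intensity per well, scored as % active cells using thresholds from rapamycin (7.5 nM) and DMSO controls. Tsc2-/-, p53-/- MEFs exposed to compound for 24 h; PI cell count recorded as viability.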

Activity change, negative = inhibition, inactive:
Cc1ccc(-n2ncc3c(NCCCn4ccnc4)ncnc32)cc1C 12.3%, CCOC(=O)c1c(NC(=O)Cc2coc3ccc(CC)cc23)sc2c1CCC2 0.991%, Cc1cccc(N2CCN(c3ccc4cc(S(=O)(=O)N5CCC(C)CC5)ccc4n3)CC2)c1C -5.02%, CC(C)C(=O)Nc1nnc(S(=O)(=O)N2CCc3ccccc32)s1 10.3%, COc1ccccc1NC(=O)N1CCN(c2ccc3nnc(-c4ccc(F)cc4)n3n2)CC1 -4.23%, CCOc1ccc(NC(=O)Cn2nc(Cc3cccnc3)c3ccccc3c2=O)cc1 1.67%, CCOC(=O)c1c(C)oc2ncnc(Nc3cccc(C(F)(F)F)c3)c12 0.267%, Cc1ccc(OCC(=O)Nc2ccc(OCc3cc(=O)n4c(C)csc4n3)cc2)cc1C -25%, CCOc1ccccc1Nc1sc(C(=O)c2ccccc2)c(N)c1C(=O)Nc1ccc(F)cc1 -0.0438%, Cc1ccc(Cn2ccnc2SCC(=O)NCc2ccccc2)cc1 2.56%, Cc1nn(CC(=O)NC2CC2)c(=O)c2cc3cc(F)ccc3n12 -6.12%, Cc1ccc(NC(=O)c2ccc3c(c2)NC(=O)c2ccccc2S3)c(Cl)c1 -18.5%, CSc1ccc(CCNC(=O)Cn2nc(C)n3c(cc4sccc43)c2=O)cc1 -1.09%, Cc1nc(-c2ccc(Cl)cc2)sc1CCNC(=O)C(=O)Nc1ccc2c(c1)OCO2 -5.65%, COc1ccc(CNC(=O)C(=O)NCC(c2ccco2)S(=O)(=O)c2ccc(Cl)cc2)cc1 (configuration not stated) -15.4%, Cn1c(=O)c2c(nc(SCC(=O)Nc3ccccc3F)n2Cc2ccccc2F)n(C)c1=O -13.8%, CCOC(=O)c1cccc(NC(=O)Cn2ncc3c(=O)oc4ccccc4c32)c1 10.5%, Cc1ccc(C(=O)c2oc3ccccc3c2NC(=O)COc2ccc(Cl)c(C)c2)cc1 8.17%, COc1cc(C2CC(=O)Nc3cc4c(cc32)OCO4)cc(OC)c1O (configuration not stated) 1.73%, Cc1c(C)n(Cc2ccc(Cl)cc2)c2ccc(C(=O)N3CCN(c4ccccc4F)CC3)cc12 -2.08%, COc1ccc(OC)c(CCNC(=O)c2nc(-c3ccc(Cl)cc3)n3c2CCCCC3)c1 -4.45%, CC(C)COc1ccc(C(=O)N2CCCCC2CCN2CCOCC2)cc1 (configuration not stated) -9.48%, CCc1cccc(CC)c1NC(=O)CN(C)S(=O)(=O)c1ccc2c(c1)n(C)c(=O)c(=O)n2C 0.0961%, CSc1nn(Cc2ccc(F)cc2)c(N(C(C)=O)C(C)=O)c1S(=O)(=O)c1ccccc1 1.15%, Cc1ccc(C(=O)CSc2nc(C)cc(C)c2C(=O)Nc2cccc(C)c2)cc1 -5.09%, COc1cccc(CNC(=O)C2CCCN(c3nnc(-n4c(C)ccc4C)s3)C2)c1OC (configuration not stated) 1.43%, O=C(Nc1ccc(OC(F)(F)F)cc1)c1cc(-c2ccc(Cl)cc2)on1 2.83%
